The full ranking holds about 81,000 sequences; the median of “one-hybrid fitness for binding parS DNA” is about -0.17, and the highest 2% start at about 0.51. This is one part of the list.
B1: Caulobacter ParB omega fusion; a variant is named by its letters at X, in order, B8GW30 (parent)
chain: MESVVVGEPGMSEGRRGLGRGLSALLGEVDAAPAQAPGEQLGGSREAPIEILQRNPDQPRRTFREEDLEDLSNSIREKGVLQPILVRPSPDTAGEYQIVAGERAWRAAQRAGLKTVPIMVRELDDLAVLEIGIIENVQRADLNVLEEALSYKVLMEKFERTQENIAQTIGKSXSHVANXMRLLXLPDEVQSYLVSGELTAXHARAIAAAADPVALAKQIIEGGLSVRETEALARKAPNLSAGKSKGGRPPRVKDTDTQALESDLSSVLGLDVSIDHRGSTGTLTITYATLEQLDDLCNRLTRGI

Variants of: B1
Test: one-hybrid fitness for binding parS DNA (scaled: cognate 1, non-cognate 0); higher = stronger binding
Conditions: with parS DNA site
How it was run: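 On M9-minus-histidine containing 0.1 mM IPTG and 5 mM 3-AT, E. coli USO cells with a HIS3 reporter, site 19 bp from the promoter, grew 48 hours at 37°C to select Caulobacter ParB libraries randomised at four specificity codons. Plasmids from before and after were Illumina-sequenced, with three replicate libraries pooled and variants under 10 reads left out. Fitness is the log change in variant-to-wild-type read ratio, rescaled against cognate and non-cognate.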

Row | Variant | one-hybrid fitness for binding parS DNA
1 | RFDL | ≤ 0.2
2 | QLTC | ≤ 0.2
3 | ESRY | ≤ 0.2
4 | VRYF | ≤ 0.2
5 | SKDI | ≤ 0.2
6 | QWRY | ≤ 0.2
7 | LHPS | ≤ 0.2
8 | VGPT | ≤ 0.2
9 | SSQM | ≤ 0.2
10 | RDDY | ≤ 0.2
11 | DTHF | ≤ 0.2
12 | TVKG | ≤ 0.2
13 | PRWA | ≤ 0.2
14 | KQGK | ≤ 0.2
15 | LSSM | ≤ 0.2
16 | KYVI | ≤ 0.2
17 | QCDR | ≤ 0.2
18 | RCRV | ≤ 0.2
19 | NPYL | ≤ 0.2
20 | YDNA | ≤ 0.2
21 | RWMP | ≤ 0.2
22 | MSGS | ≤ 0.2
23 | RCNG | 0.966
24 | AMRR | ≤ 0.2
25 | VNVS | ≤ 0.2

Row | Variant | one-hybrid fitness for binding parS DNA
26 | RGFE | ≤ 0.2
27 | HINC | ≤ 0.2
28 | WLFS | ≤ 0.2
29 | CELG | ≤ 0.2
30 | LYSD | ≤ 0.2
31 | KLTF | ≤ 0.2
32 | HRFR | ≤ 0.2
33 | DRHI | ≤ 0.2
34 | MPTN | ≤ 0.2
35 | AAKA | ≤ 0.2
36 | DGWT | ≤ 0.2
37 | AAIS | ≤ 0.2
38 | RQWI | ≤ 0.2
39 | TQRH | ≤ 0.2
40 | IIWR | ≤ 0.2
41 | SNRP | ≤ 0.2
42 | YALW | ≤ 0.2
43 | KRTI | ≤ 0.2
44 | NNPR | ≤ 0.2
45 | YGRS | ≤ 0.2
46 | YVPG | ≤ 0.2
47 | IDSR | ≤ 0.2
48 | TWWS | ≤ 0.2
49 | EAYV | ≤ 0.2
50 | IVTS | ≤ 0.2

Row | Variant | one-hybrid fitness for binding parS DNA
51 | KMWG | ≤ 0.2
52 | RNSQ | ≤ 0.2
53 | SIED | ≤ 0.2
54 | TQPD | ≤ 0.2
55 | EILT | ≤ 0.2
56 | RHEQ | 0.223
57 | STSP | ≤ 0.2
58 | RAHK | ≤ 0.2
59 | PRMS | ≤ 0.2
60 | AIQV | ≤ 0.2
61 | HLPW | ≤ 0.2
62 | SNPD | ≤ 0.2
63 | HNDY | ≤ 0.2
64 | DTRM | ≤ 0.2
65 | LTEF | ≤ 0.2
66 | QCHN | ≤ 0.2
67 | FLPD | ≤ 0.2
68 | QTNC | ≤ 0.2
69 | RYRC | 0.798
70 | LKHP | ≤ 0.2
71 | MSMP | ≤ 0.2
72 | ENYV | ≤ 0.2
73 | PSSR | ≤ 0.2
74 | SYFG | ≤ 0.2
75 | FRRG | ≤ 0.2

Row | Variant | one-hybrid fitness for binding parS DNA
76 | LWHW | ≤ 0.2
77 | SIRC | ≤ 0.2
78 | SNFG | ≤ 0.2
79 | TRAS | ≤ 0.2
80 | TAWP | ≤ 0.2
81 | RCPM | 0.203
82 | VKDD | ≤ 0.2
83 | RAIT | 0.682
84 | DWPL | ≤ 0.2
85 | NGVF | ≤ 0.2
86 | GDFV | ≤ 0.2
87 | ICKG | ≤ 0.2
88 | FDHG | ≤ 0.2
89 | CING | ≤ 0.2
90 | RINI | ≤ 0.2
91 | IAFR | ≤ 0.2
92 | REGA | ≤ 0.2
93 | FLTL | ≤ 0.2
94 | VSSV | ≤ 0.2
95 | LRVW | ≤ 0.2
96 | SCML | ≤ 0.2
97 | STSR | ≤ 0.2
98 | QCGR | ≤ 0.2
99 | RISN | 0.454
100 | MEYN | ≤ 0.2

Row | Variant | one-hybrid fitness for binding parS DNA
101 | DAGG | ≤ 0.2
102 | GYGT | ≤ 0.2
103 | ITRM | ≤ 0.2
104 | AFLR | ≤ 0.2
105 | GIPI | ≤ 0.2
106 | KVKS | ≤ 0.2
107 | QIVT | ≤ 0.2
108 | IKYL | ≤ 0.2
109 | PFSD | ≤ 0.2
110 | GVNF | ≤ 0.2
111 | YVVC | ≤ 0.2
112 | GQRD | ≤ 0.2
113 | DRFK | ≤ 0.2
114 | WHIG | ≤ 0.2
115 | CPKA | ≤ 0.2
116 | ELYT | ≤ 0.2
117 | LSPQ | ≤ 0.2
118 | GHML | ≤ 0.2
119 | EGCL | ≤ 0.2
120 | HTSC | ≤ 0.2
121 | YIFG | ≤ 0.2
122 | NWNC | ≤ 0.2
123 | MTTG | ≤ 0.2
124 | KTTL | ≤ 0.2
125 | SYQG | ≤ 0.2

Row | Variant | one-hybrid fitness for binding parS DNA
126 | IYPK | ≤ 0.2
127 | LYEG | ≤ 0.2
128 | IDVS | ≤ 0.2
129 | KLYE | ≤ 0.2
130 | QSRT | ≤ 0.2
131 | MLPS | ≤ 0.2
132 | SYDF | ≤ 0.2
133 | TTSL | ≤ 0.2
134 | SFKI | ≤ 0.2
135 | RNCR | ≤ 0.2
136 | RMTK | ≤ 0.2
137 | TTGS | ≤ 0.2
138 | TALK | ≤ 0.2
139 | YSSA | ≤ 0.2
140 | LCAC | ≤ 0.2
141 | GLVI | ≤ 0.2
142 | FIKG | ≤ 0.2
143 | SDGS | ≤ 0.2
144 | AEDA | ≤ 0.2
145 | CNPT | ≤ 0.2
146 | RSIW | ≤ 0.2
147 | IHIM | ≤ 0.2
148 | NDLM | ≤ 0.2
149 | ISQS | ≤ 0.2
150 | SPGR | ≤ 0.2

Row | Variant | one-hybrid fitness for binding parS DNA
151 | TTDF | ≤ 0.2
152 | KTVS | ≤ 0.2
153 | IFSI | ≤ 0.2
154 | SSPT | ≤ 0.2
155 | ELMF | ≤ 0.2
156 | AHTE | ≤ 0.2
157 | TDDS | ≤ 0.2
158 | RSAY | 0.462
159 | AACR | ≤ 0.2
160 | WATC | ≤ 0.2
161 | PVRY | ≤ 0.2
162 | IHNG | ≤ 0.2
163 | QIHN | ≤ 0.2
164 | QKFS | ≤ 0.2
165 | RTCQ | ≤ 0.2
166 | SPHS | ≤ 0.2
167 | TAAR | ≤ 0.2
168 | EYHT | ≤ 0.2
169 | CHSP | ≤ 0.2
170 | VALD | ≤ 0.2
171 | NNAC | ≤ 0.2
172 | ECVS | ≤ 0.2
173 | KYNA | ≤ 0.2
174 | RDVT | ≤ 0.2
175 | PRKW | ≤ 0.2

Row | Variant | one-hybrid fitness for binding parS DNA
176 | MSMR | ≤ 0.2
177 | FAAD | ≤ 0.2
178 | QLDI | ≤ 0.2
179 | NDHA | ≤ 0.2
180 | AHWP | ≤ 0.2
181 | ETPS | ≤ 0.2
182 | LQFS | ≤ 0.2
183 | GTNV | ≤ 0.2
184 | CGCS | ≤ 0.2
185 | EGPM | ≤ 0.2
186 | LKQD | ≤ 0.2
187 | CYDY | ≤ 0.2
188 | NPTF | ≤ 0.2
189 | QQSF | ≤ 0.2
190 | PNTA | ≤ 0.2
191 | IRVY | ≤ 0.2
192 | KPAI | ≤ 0.2
193 | YDTV | ≤ 0.2
194 | SQRH | ≤ 0.2
195 | KSLC | ≤ 0.2
